# Experimental data from the RNAGym collection of RNA variant scans (doi:10.1073/pnas.2313332121).
# Variants at the floor of the assay are shown more often than the library holds them.
# B1: TPR 5TU (parent)
# chain: GGAUCUUCUCGAUCUAACAAAAAAGACAAAUCUGCCACAAAGCUUGAGAGCAUCUUCGGAUGCAGAGGCGGCAGCCUUCGGUGGCGCGAUAGCGCCAACGUUCUCAACUAUGACACGCAAAACGCGUGCUCCGUUGAAUGGAGUUUAUCAUG
# Variants of: B1
# Assay: polymerase ribozyme fitness, log enrichment relative to wild type (log ratio); higher = more active; in vitro selection for triplet polymerase activity
# Outline: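 Fitness compares each genotype's enrichment to that of the wild type on a logarithmic scale, averaging replicates with inverse-variance weights. The logarithm is base 2. Enrichment came from Illumina sequencing of input and output libraries after one triplicate round of in vitro selection, which included frozen incubation at −7 °C, of PCR-built, transcribed mutant libraries of each subunit of a heterodimeric triplet polymerase ribozyme. Only genotypes with ≥10 input reads and ≥1 read per output were kept.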
row,Variant,polymerase ribozyme fitness (log ratio)
1,A17G C27A U53A G83C G140C,≤ -4.2
2,A17G C27G G34A G88U C96A U101G U102G U146A A150G,≤ -4.2
3,A17G C27U C32G C54U G81C C132G U135A,≤ -4.2
4,A17G C32A G42A A60C G68C C85G U111G,≤ -4.2
5,A17G C32A G133C,≤ -4.2
6,A17G C32G A52G A98G G100C C116A G133U,≤ -4.2
7,A17G C32G A91U G141A,≤ -4.2
8,A17G C32G C76U,≤ -4.2
9,A17G C32U C35A G84A G100A C114A,≤ -4.2
10,A17G C35A C63G C79G G92C C96U,≤ -4.2
11,A17G C35A G88A A122G,≤ -4.2
12,A17G C35U G74C C105G A150C,≤ -4.2
13,A17G C38G C43G U61G C95U G128A,≤ -4.2
14,A17G C38G C51A U78G U90G C131A,≤ -4.2
15,A17G C38U C57A C63A A115G U144A,-1.28
16,A17G C38U G81A C96A,0.341
17,A17G C51U A106G A120C A122U,-1.36
18,A17G C51U G68A U82C C116U,≤ -4.2
19,A17G C51U U56A C76G G88A G117U U146A C149U,≤ -4.2
20,A17G C54G G67U C93G G126U,≤ -4.2
21,A17G C75A C76A U90C C93G,≤ -4.2

row,Variant,polymerase ribozyme fitness (log ratio)
1,A17G C76G,≤ -4.2
2,A17G C108U,-3.09
3,A17G C125A,0.215
4,A17G C129G,-3.57
5,A17G C132G,-3.28
6,A17G G25C U33G C43U C54U C76A C93U C99A A106G C114A A150C,≤ -4.2
7,A17G G34U C35G A60G C99A U109C,≤ -4.2
8,A17G G48A C87G C93A A97U G140A,≤ -4.2
9,A17G G50C G88C,≤ -4.2
10,A17G G50U C95U G124C G141A,-0.476
11,A17G G58C U82G G88A G117A A119G C149U,≤ -4.2
12,A17G G59A U77G A91C,≤ -4.2
13,A17G G71A,-3.06
14,A17G G83U G124U G143A U148G,≤ -4.2
15,A17G G88U,≤ -4.2
16,A17G U31A U90C C93U C99G C125A A137C G143C,≤ -4.2
17,A17G U31A U90G U148A,≤ -4.2
18,A17G U31C C35G G86A A121U,-4.19
19,A17G U31C C38U C51U G68U C75U G100A U144C,≤ -4.2
20,A17G U33C A60G C75A C87U,≤ -4.2
21,A17G U33C C75G C85G,≤ -4.2

row,Variant,polymerase ribozyme fitness (log ratio)
1,A17G U44G C85U G141C,≤ -4.2
2,A17G U45A G50A G62U C79G G86U C103A,≤ -4.2
3,A17G U45G C54U G94A C96G C108U A122U G141A,≤ -4.2
4,A17G U53A C99G U130C,≤ -4.2
5,A17G U55A G88C C95G U148G,≤ -4.2
6,A17G U55A G140U U146A,≤ -4.2
7,A17G U56G G81U A91U C96A A150G,≤ -4.2
8,A17G U90C C93U C105G A122G G143C,≤ -4.2
9,A17G U101A C105G,-3.18
10,A17U A19C A26C U33G A52U A110C U135G G141C,≤ -4.2
11,A17U A19C G86A C96A A110U U139G,≤ -4.2
12,A17U A19G A97U C129G U135C,≤ -4.2
13,A17U A19G C35A C57A G84A C95A C129G G133C C149U,≤ -4.2
14,A17U A19U A22U U61A G83A G84A G100U,≤ -4.2
15,A17U A19U A37U U53A G58A C95A A121G A122C,-3.75
16,A17U A19U C36A G58U C93A G94A A121C U148G,≤ -4.2
17,A17U A19U U56C C57U C93U A113C C118A,≤ -4.2
18,A17U A20C G25A C27U G68U A97U G100C C116G G141C,≤ -4.2
19,A17U A20G G42C C85U G128C,≤ -4.2
20,A17U A20U C87G U102G U145G,≤ -4.2
21,A17U A21C U44A A49C C72A U82A U134A,≤ -4.2

row,Variant,polymerase ribozyme fitness (log ratio)
1,A17U A21C U82A C105G G128A G141A A142G,≤ -4.2
2,A17U A21G C27G A28U C85A C87U C95G,≤ -4.2
3,A17U A21U C27U G42C C95A U101G U102A,≤ -4.2
4,A17U A21U U55A A91C C95G A98U C108G,≤ -4.2
5,A17U A22C A30C C75U C108A U148A,≤ -4.2
6,A17U A22U A23U A39G G68A G80A U134C G143C,≤ -4.2
7,A17U A22U A29G A47U C63A A73U,≤ -4.2
8,A17U A22U G84U C95U A97U U102C C125A,≤ -4.2
9,A17U A23G C36U G68C A89C,≤ -4.2
10,A17U A23U C36G C57A G70U U78C C85U C103G A147C C149U,≤ -4.2
11,A17U A24U C27A C57U G80U G94C A110U G126A G133C,≤ -4.2
12,A17U A26C A49U G50C C95A C105A,≤ -4.2
13,A17U A26C C38U G83A G124U,-3.97
14,A17U A26G C85U,≤ -4.2
15,A17U A26U C27U C36G G141C,≤ -4.2
16,A17U A28U A91G A106G C118U G128U G140C,≤ -4.2
17,A17U A28U G46A C54U C57A G136A,≤ -4.2
18,A17U A28U G50C C125G,≤ -4.2
19,A17U A29C A41G G59C C85G,≤ -4.2
20,A17U A29C C54G C125U G136C,≤ -4.2
